The source of these data is the supplement of paper PMC10723795.

Counter-ions that a name gives are not always drawn. Some of the results follow.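 How the source made its calls: active = more than 2 SD below the DMSO mean: under 0.85 at 10 µM or 0.885 at 1 µM; inactive = the rest.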 Many values rest on one well or one pass, so single values are uncertain.

The test deals with RPE1. The experiment in a line: nucleolar normality score relative to DMSO (fraction of DMSO control); RPE1 is a non-cancer human cell line; higher = more normal nucleoli (less nucleolar stress). Particulars: 24 h.
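Further: fixed cells immunolabelled for nucleolin and UBF, 40 image fields per well in 384-well plates, per-cell score = nucleolin nucleolar/nucleoplasm intensity ratio divided by the matching UBF ratio.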

For `COc1ccc(C2CC(c3ccccc3)=NN2c2ccc(S(N)(=O)=O)cc2)cc1` (stereo not drawn), the nucleolar normality score (1 µM) was inactive: 0.927 and the nucleolar normality score (10 µM) is inactive: 1.

Take `Cc1cc(Nc2cc(N3CCN(C)CC3)nc(/C=C/c3ccccc3)n2)n[nH]1` [ENMD-2076 L-(+)-Tartaric acid]: the nucleolar normality score is, setting by setting: (1 µM) inactive: 0.907; (10 µM) inactive: 0.939.

In the case of `Cc1cc(Nc2cc(N3CCN(C)CC3)nc(/C=C/c3ccccc3)n2)n[nH]1`, the nucleolar normality score was inactive: 1.04 (1 µM) and inactive: 1.08 (10 µM).

Consider `COCCOc1ccc2c(c1)ncn2-c1ccc2cccc(N3CCC(N)CC3)c2n1`, for which the nucleolar normality score by setting is: (1 µM) inactive: 0.944; (10 µM) inactive: 1.01.

Turning to `CCCC(=O)[O-].[Na+]` [Sodium butyrate], the nucleolar normality score (1 µM) is active: 0.23 and the nucleolar normality score (10 µM) was inactive: 1.07.

Consider `Cc1nn(C)c2c1C(c1ccc(C(F)(F)F)cc1)C(C#N)=C(N)O2` (stereo not drawn), for which the nucleolar normality score runs as follows: (1 µM) inactive: 1.01; (10 µM) inactive: 0.963.

For the compound `CCCCCCCCCCCC1=C(O)C(=O)C=C(O)C1=O` [Embelin], the nucleolar normality score was inactive: 1.03 (1 µM) and inactive: 0.91 (10 µM).

As for `COc1c2ccoc2cc2oc(=O)ccc12` [Bergapten], the nucleolar normality score (1 µM) is inactive: 1.12 and the nucleolar normality score (10 µM) is inactive: 0.903.

As to `Cc1ccc([N+](=O)[O-])cc1S(=O)(=O)N(C)/N=C/c1cnc2ccc(Br)cn12`, the nucleolar normality score reads like this: (1 µM) inactive: 1; (10 µM) active: 0.115.

Take `COc1cc(OC)c(/C=C/S(=O)(=O)Cc2ccc(OC)c(NCC(=O)O)c2)c(OC)c1`: the nucleolar normality score (1 µM) was inactive: 1.03 and the nucleolar normality score (10 µM) is inactive: 1.07.

In the case of `COc1ccc(-c2ccc3c(N4CCOCC4)nc(N4C[C@@H](C)O[C@@H](C)C4)nc3n2)cc1CO`, the nucleolar normality score runs as follows: (1 µM) inactive: 0.986; (10 µM) inactive: 1.

In the case of `Nc1nc(OCc2ccccc2)c2nc[nH]c2n1` [O6-Benzylguanine], the nucleolar normality score (1 µM) was inactive: 1.02 and the nucleolar normality score (10 µM) was inactive: 0.877.

With `CC1=C(/C=C/C(C)=C/C=C/C(C)=C\C(=O)O)C(C)(C)CCC1` [Isotretinoin], the nucleolar normality score (1 µM) was inactive: 0.896 and the nucleolar normality score (10 µM) is inactive: 0.991.

On to `CN(Cc1cnc2nc(N)nc(N)c2n1)c1ccc(C(=O)N[C@@H](CCC(=O)O)C(=O)O)cc1` [Methotrexate], for which the nucleolar normality score runs as follows: (1 µM) inactive: 1.02; (10 µM) active: 0.729.

In the case of `O=C(Nc1nccs1)C(c1cc(F)ccc1O)N1Cc2ccccc2C1=O` (stereo not drawn), the nucleolar normality score is inactive: 0.958 (1 µM) and inactive: 0.974 (10 µM).

Turning to `CC/C(=C(/c1ccc(/C=C/C(=O)O)cc1)c1ccc2[nH]ncc2c1)c1ccc(F)cc1Cl` [Brilanestrant (GDC-0810, ARN-810)], the nucleolar normality score was inactive: 1.11 (1 µM) and inactive: 0.985 (10 µM).

As to `COc1cc(C(C)=O)ccc1O` [Apocynin], the nucleolar normality score is, setting by setting: (1 µM) inactive: 1.1; (10 µM) inactive: 1.1.

As to `CCCCCCCCCCCCCCCCOP(=O)([O-])OCC[N+](C)(C)C` [Miltefosine], the nucleolar normality score (1 µM) is inactive: 1.01 and the nucleolar normality score (10 µM) was inactive: 1.09.

Consider `COC(=O)c1ccc([C@H]2c3[nH]c4ccccc4c3C[C@H](C(=O)OC)N2C(=O)CCl)cc1`, for which the nucleolar normality score is inactive: 0.989 (1 µM) and inactive: 0.995 (10 µM).

For the compound `Cc1ncc(Cl)cc1NCc1ccc(C(=O)N[C@@H](CC2CCCC2)C(=O)NC2CC2)s1`, the nucleolar normality score is inactive: 1.01 (1 µM) and inactive: 1.04 (10 µM).

In the case of `Oc1c(F)cc(-c2cnccc2-c2ccc(N3CCOCC3)cc2)cc1F`, the nucleolar normality score reads like this: (1 µM) inactive: 1; (10 µM) inactive: 1.03.

As to `CCCCCCCCCCCCc1ccc(S(=O)(=O)Nc2nncs2)cc1`, the nucleolar normality score is inactive: 1.07 (1 µM) and inactive: 1.07 (10 µM).

Take `CN(C)CC#Cc1ccc(OCCCc2sc(N3CCc4cccc(C(=O)Nc5nc6ccccc6s5)c4C3)nc2C(=O)O)c(F)c1`: the nucleolar normality score is, setting by setting: (1 µM) inactive: 1.07; (10 µM) inactive: 1.03.

Consider `CNCCN(C)Cc1c[nH]nc1-c1ccc(O[C@H]2C[C@H](OCCC3CCOCC3)C2)cc1`, for which the nucleolar normality score reads like this: (1 µM) inactive: 1.03; (10 µM) inactive: 1.05.

With `COC1CCN(C(=O)c2cc(Cc3n[nH]c(=O)c4ccccc34)ccc2F)CC1`, the nucleolar normality score is inactive: 1 (1 µM) and inactive: 0.867 (10 µM).

As for `Nc1ccn([C@@H]2O[C@H](CO)[C@@H](O)[C@@H]2O)c(=O)n1` [Cytarabine], the nucleolar normality score (1 µM) was inactive: 1.03 and the nucleolar normality score (10 µM) is inactive: 1.05.

As to `Cc1cc(C)c(S(=O)(=O)n2cc(C)cc2C)c(C)c1`, the nucleolar normality score is inactive: 1 (1 µM) and inactive: 1.06 (10 µM).

With `C=CC(=O)Nc1ccc(CN2C(=O)N(c3cc(OC)cc(OC)c3)Cc3cnc(Nc4ccc(N5CCN(C)CC5)cc4)nc32)cc1`, the nucleolar normality score was inactive: 0.937 (1 µM) and inactive: 0.992 (10 µM).

Consider `Nc1ccc(C(=O)Nc2cccc(-c3nc(N4CCOCC4)c4oc5ncccc5c4n3)c2)cn1`, for which the nucleolar normality score by setting is: (1 µM) inactive: 1.06; (10 µM) inactive: 1.11.

For the compound `C[C@H](Nc1ncnc2[nH]cnc12)c1cc2ccc(F)cc2nc1-c1ccccn1`, the nucleolar normality score (1 µM) is inactive: 0.996 and the nucleolar normality score (10 µM) was inactive: 1.01.

`Cc1nc(-c2cccnc2)sc1C(=O)Nc1ccccc1-c1cn2c(CN3CCOCC3)csc2n1`: the nucleolar normality score runs as follows: (1 µM) inactive: 1.03; (10 µM) inactive: 1.09.

Take `COc1cc([C@@H]2c3cc4c(cc3[C@@H](O[C@@H]3O[C@@H]5CO[C@@H](c6cccs6)O[C@H]5[C@H](O)[C@H]3O)[C@H]3COC(=O)[C@H]23)OCO4)cc(OC)c1O` [Teniposide]: the nucleolar normality score reads like this: (1 µM) active: 0.839; (10 µM) inactive: 0.948.

With `CC(C)c1ccc2c(c1)c(SC(C)(C)C)c(CC(C)(C)C(=O)O)n2Cc1ccc(Cl)cc1`, the nucleolar normality score runs as follows: (1 µM) inactive: 0.995; (10 µM) inactive: 0.997.

For `Cc1nc(Nc2ncc(C(=O)Nc3c(C)cccc3Cl)s2)cc(N2CCN(CCO)CC2)n1` [Dasatinib hydrochloride], the nucleolar normality score by setting is: (1 µM) active: 0.821; (10 µM) active: 0.722.

Take `Cc1nc(Nc2ncc(C(=O)Nc3c(C)cccc3Cl)s2)cc(N2CCN(CCO)CC2)n1` [Dasatinib]: the nucleolar normality score (1 µM) is active: 0.763 and the nucleolar normality score (10 µM) is active: 0.637.

For `COc1cc(N2CCC(N3CCN(C)CC3)CC2)ccc1Nc1ncnc(Nc2ccccc2S(=O)(=O)C(C)C)n1`, the nucleolar normality score (1 µM) is inactive: 0.928 and the nucleolar normality score (10 µM) was active: 0.841.

Regarding `CCN1CCN(Cc2ccc(-c3cc4c(N[C@H](C)c5ccccc5)ncnc4[nH]3)cc2)CC1`, the nucleolar normality score is inactive: 0.934 (1 µM) and inactive: 1.11 (10 µM).

As to `Cc1nc(-c2ccc(OCC(C)C)c(C#N)c2)sc1C(=O)O` [Febuxostat], the nucleolar normality score runs as follows: (1 µM) inactive: 1.06; (10 µM) inactive: 1.13.

Regarding `C=C1/C(=C\C=C2/CCC[C@]3(C)[C@@H]([C@H](C)/C=C/[C@H](C)C(C)C)CC[C@@H]23)C[C@@H](O)C[C@@H]1O` [Doxercalciferol], the nucleolar normality score reads like this: (1 µM) inactive: 1.02; (10 µM) inactive: 1.06.
